Where a name gives a salt, the structure may show the parent alone. Whole data set: some 1,900 compounds, median “cell viability of compound + 1 nM pemigatinib relative to pemigatinib-only (DMSO) wells” near 0.95, cut for the lowest 2% near 0.22. The list shows a part of the results.

Consider 37 compounds from the supplement of paper PMC9588766.

This assay concerns PDC-DUC18828. Briefly: cell viability of compound + 1 nM pemigatinib relative to pemigatinib-only (DMSO) wells (fraction); PDC-DUC18828 is a patient-derived cholangiocarcinoma cell line; higher = less growth inhibition. The settings on record: first compound 1 µM; pemigatinib concentration 1 nM; 72 h. The method, then: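 Selleck Bioactive library screen in the patient-derived FGFR2 fusion-positive ICC cell line PDC-DUC18828 (500 cells/well). Each compound was tested at 1 uM with 1 nM pemigatinib, in triplicate, for 72 h. Viability was read by CellTiter-Glo and normalised to plate DMSO controls. Value is the paper's averaged normalised viability.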
`N#CCNC(=O)c1ccc(-c2ccnc(Nc3ccc(N4CCOCC4)cc3)n2)cc1` + CCN1C(=O)N(c2c(F)c(OC)cc(OC)c2F)Cc2cnc3[nH]c(CN4CCOCC4)cc3c21 [pemigatinib]: the cell viability is 0.903.
Take `CS(=O)(=O)OCCCCOS(C)(=O)=O` [Busulfan] + CCN1C(=O)N(c2c(F)c(OC)cc(OC)c2F)Cc2cnc3[nH]c(CN4CCOCC4)cc3c21 [pemigatinib]: the cell viability stood at 0.982.
The figure for `O=C(/C=C/c1ccc(O)cc1)c1ccc(O)cc1O` [Isoliquiritigenin] + CCN1C(=O)N(c2c(F)c(OC)cc(OC)c2F)Cc2cnc3[nH]c(CN4CCOCC4)cc3c21 [pemigatinib] is 0.872.
The figure for `N#Cc1ccc(-c2csc(NN=C3CCCC3)n2)cc1` [Remodelin] + CCN1C(=O)N(c2c(F)c(OC)cc(OC)c2F)Cc2cnc3[nH]c(CN4CCOCC4)cc3c21 [pemigatinib] is 0.986.
The figure for `COc1cccc2c1C(=O)c1c(O)c3c(c(O)c1C2=O)C[C@@](O)(C(C)=O)C[C@@H]3O[C@H]1C[C@H](N)[C@H](O)[C@H](C)O1` [Daunorubicin HCl] + CCN1C(=O)N(c2c(F)c(OC)cc(OC)c2F)Cc2cnc3[nH]c(CN4CCOCC4)cc3c21 [pemigatinib] is 0.0984; for `CNC(=O)c1ccccc1Nc1cc(Nc2ccc(N3CCOCC3)cc2OC)ncc1C(F)(F)F` + CCN1C(=O)N(c2c(F)c(OC)cc(OC)c2F)Cc2cnc3[nH]c(CN4CCOCC4)cc3c21 [pemigatinib] it is 0.758.
For the compound `CNC(=O)c1cc(Oc2ccc(NC(=O)Nc3ccc(Cl)c(C(F)(F)F)c3)cc2)ccn1` [Sorafenib] + CCN1C(=O)N(c2c(F)c(OC)cc(OC)c2F)Cc2cnc3[nH]c(CN4CCOCC4)cc3c21 [pemigatinib], the cell viability was 1.05.
The figure for `CNC(=O)c1cc(Oc2ccc(NC(=O)Nc3ccc(Cl)c(C(F)(F)F)c3)cc2)ccn1` [Sorafenib Tosylate] + CCN1C(=O)N(c2c(F)c(OC)cc(OC)c2F)Cc2cnc3[nH]c(CN4CCOCC4)cc3c21 [pemigatinib] is 1.03; for `CC/C(=C(\c1ccc(O)cc1)c1ccc(OCCNC)cc1)c1ccccc1` [Endoxifen HCl] + CCN1C(=O)N(c2c(F)c(OC)cc(OC)c2F)Cc2cnc3[nH]c(CN4CCOCC4)cc3c21 [pemigatinib] it is 0.965; for `Cc1ccc(S(=O)(=O)Cc2nc(-c3ccc(C(=O)NCc4cccnc4)cc3)oc2C)cc1` + CCN1C(=O)N(c2c(F)c(OC)cc(OC)c2F)Cc2cnc3[nH]c(CN4CCOCC4)cc3c21 [pemigatinib] it is 0.413.
On to `C=C1CC[C@@H]2[C@](C)(CO)[C@H](O)CC[C@@]2(C)[C@@H]1C/C=C1/C(=O)OC[C@H]1O` [Andrographolide] + CCN1C(=O)N(c2c(F)c(OC)cc(OC)c2F)Cc2cnc3[nH]c(CN4CCOCC4)cc3c21 [pemigatinib], for which the cell viability was determined as 0.956.
For `Cc1cn([C@H]2C=C[C@@H](CO)O2)c(=O)[nH]c1=O` [Stavudine (d4T)] + CCN1C(=O)N(c2c(F)c(OC)cc(OC)c2F)Cc2cnc3[nH]c(CN4CCOCC4)cc3c21 [pemigatinib] the value was 0.972; for `CC(=O)NS(=O)(=O)c1ccc(N)cc1` [Sulfacetamide Sodium] + CCN1C(=O)N(c2c(F)c(OC)cc(OC)c2F)Cc2cnc3[nH]c(CN4CCOCC4)cc3c21 [pemigatinib], 0.983.
Regarding `C=CC1=C(C(=O)O)N2C(=O)[C@@H](NC(=O)/C(=N\O)c3csc(N)n3)[C@H]2SC1` [Cefdinir] + CCN1C(=O)N(c2c(F)c(OC)cc(OC)c2F)Cc2cnc3[nH]c(CN4CCOCC4)cc3c21 [pemigatinib], the cell viability worked out at 1.05.
The figure for `CN1C(CCl)Nc2cc(Cl)c(S(N)(=O)=O)cc2S1(=O)=O` (configuration not stated) [Methyclothiazide] + CCN1C(=O)N(c2c(F)c(OC)cc(OC)c2F)Cc2cnc3[nH]c(CN4CCOCC4)cc3c21 [pemigatinib] is 0.897; for `OCc1ccccc1O[C@@H]1O[C@H](CO)[C@@H](O)[C@H](O)[C@H]1O` [Salicin] + CCN1C(=O)N(c2c(F)c(OC)cc(OC)c2F)Cc2cnc3[nH]c(CN4CCOCC4)cc3c21 [pemigatinib] it is 0.976; for `CC(C=CC(=O)NO)=CC(C)C(=O)c1ccc(N(C)C)cc1` (configuration not stated) [Trichostatin A (TSA)] + CCN1C(=O)N(c2c(F)c(OC)cc(OC)c2F)Cc2cnc3[nH]c(CN4CCOCC4)cc3c21 [pemigatinib] it is 0.0931.
Regarding `c1ccc2c(CC3=NCCN3)cccc2c1` [Naphazoline HCl] + CCN1C(=O)N(c2c(F)c(OC)cc(OC)c2F)Cc2cnc3[nH]c(CN4CCOCC4)cc3c21 [pemigatinib], the cell viability was 0.947.
For `CC(=O)OCC(=O)[C@@]12OC(C)(C)O[C@@H]1C[C@H]1[C@@H]3C[C@H](F)C4=CC(=O)C=C[C@]4(C)[C@@]3(F)[C@@H](O)C[C@@]12C` [Fluocinonide] + CCN1C(=O)N(c2c(F)c(OC)cc(OC)c2F)Cc2cnc3[nH]c(CN4CCOCC4)cc3c21 [pemigatinib] the value was 0.914; for `CCN(CC)CC(=O)Nc1c(C)cccc1C` [Lidocaine] + CCN1C(=O)N(c2c(F)c(OC)cc(OC)c2F)Cc2cnc3[nH]c(CN4CCOCC4)cc3c21 [pemigatinib], 0.994.
For `CC(=O)c1cc2c(o1)C(=O)c1ccccc1C2=O` [Napabucasin] + CCN1C(=O)N(c2c(F)c(OC)cc(OC)c2F)Cc2cnc3[nH]c(CN4CCOCC4)cc3c21 [pemigatinib] the value was 0.011; for `CN(c1ccccc1CNc1nc(Nc2ccc3c(c2)CC(=O)N3)ncc1C(F)(F)F)S(C)(=O)=O` + CCN1C(=O)N(c2c(F)c(OC)cc(OC)c2F)Cc2cnc3[nH]c(CN4CCOCC4)cc3c21 [pemigatinib], 0.826.
The figure for `CCCCN(Cc1ccc(C(=O)NO)cc1)C(=O)Nc1ccccc1` [Nexturastat A] + CCN1C(=O)N(c2c(F)c(OC)cc(OC)c2F)Cc2cnc3[nH]c(CN4CCOCC4)cc3c21 [pemigatinib] is 0.999.
Regarding `COC(=O)N[C@H](C(=O)N1CCC[C@H]1c1ncc(-c2ccc(-c3ccc(-c4cnc([C@@H]5CCCN5C(=O)[C@@H](NC(=O)OC)C(C)C)[nH]4)cc3)cc2)[nH]1)C(C)C` + CCN1C(=O)N(c2c(F)c(OC)cc(OC)c2F)Cc2cnc3[nH]c(CN4CCOCC4)cc3c21 [pemigatinib], the cell viability was determined as 0.839.
The figure for `CC(C(=O)O)c1cccc(C(=O)c2ccccc2)c1` (configuration not stated) [Ketoprofen] + CCN1C(=O)N(c2c(F)c(OC)cc(OC)c2F)Cc2cnc3[nH]c(CN4CCOCC4)cc3c21 [pemigatinib] is 1.02; for `Cc1cc(C)c2c(c1)[C@@H](N(Cc1cc(C(F)(F)F)cc(C(F)(F)F)c1)c1nnn(C)n1)CCCN2C[C@H]1CC[C@H](C(=O)O)CC1` + CCN1C(=O)N(c2c(F)c(OC)cc(OC)c2F)Cc2cnc3[nH]c(CN4CCOCC4)cc3c21 [pemigatinib] it is 0.906; for `CCOC(=O)c1ncn2c1CN(C)C(=O)c1cc(F)ccc1-2` [Flumazenil] + CCN1C(=O)N(c2c(F)c(OC)cc(OC)c2F)Cc2cnc3[nH]c(CN4CCOCC4)cc3c21 [pemigatinib] it is 0.998.
For `CC1=C(C(=O)Nc2cc3cn[nH]c3cc2F)C(c2ccc(C(F)(F)F)cc2)CC(=O)N1` (configuration not stated) + CCN1C(=O)N(c2c(F)c(OC)cc(OC)c2F)Cc2cnc3[nH]c(CN4CCOCC4)cc3c21 [pemigatinib] the value was 1.05; for `CNC(=O)c1ccccc1Nc1nc(Nc2ccc(N3CCOCC3)cc2OC)ncc1Cl` + CCN1C(=O)N(c2c(F)c(OC)cc(OC)c2F)Cc2cnc3[nH]c(CN4CCOCC4)cc3c21 [pemigatinib], 0.706.
In the case of `COc1ccc(/C=C\c2cc(OC)c(OC)c(OC)c2)cc1O` [Combretastatin A4] + CCN1C(=O)N(c2c(F)c(OC)cc(OC)c2F)Cc2cnc3[nH]c(CN4CCOCC4)cc3c21 [pemigatinib], the cell viability was 0.281.
For `COc1cc(C(C)=O)ccc1OCCCN1CCC(c2noc3cc(F)ccc23)CC1` [Iloperidone] + CCN1C(=O)N(c2c(F)c(OC)cc(OC)c2F)Cc2cnc3[nH]c(CN4CCOCC4)cc3c21 [pemigatinib] the value was 1.02; for `CCCC1O[C@@H]2C[C@H]3[C@@H]4CCC5=CC(=O)C=C[C@]5(C)[C@H]4[C@@H](O)C[C@]3(C)[C@]2(C(=O)CO)O1` (some centres not stated) [Budesonide] + CCN1C(=O)N(c2c(F)c(OC)cc(OC)c2F)Cc2cnc3[nH]c(CN4CCOCC4)cc3c21 [pemigatinib], 0.976; for `CNC(=O)[C@@H](c1ccccc1)N1CCc2cc(OC)c(OC)cc2[C@@H]1CCc1ccc(C(F)(F)F)cc1` [Almorexant HCl] + CCN1C(=O)N(c2c(F)c(OC)cc(OC)c2F)Cc2cnc3[nH]c(CN4CCOCC4)cc3c21 [pemigatinib], 1.07.
For `NCCCC[C@@H]1NC(=O)[C@@H](Cc2ccccc2)NC(=O)[C@H](CC(=O)O)NC(=O)CNC(=O)[C@H](CCCN=C(N)N)NC1=O` [Cyclo (-RGDfK)] + CCN1C(=O)N(c2c(F)c(OC)cc(OC)c2F)Cc2cnc3[nH]c(CN4CCOCC4)cc3c21 [pemigatinib] the value was 0.94; for `c1cc(-c2cnn3cc(-c4ccc(N5CCNCC5)cc4)cnc23)c2cccnc2c1` + CCN1C(=O)N(c2c(F)c(OC)cc(OC)c2F)Cc2cnc3[nH]c(CN4CCOCC4)cc3c21 [pemigatinib], 0.954.
For `CC(C)NCC(O)c1ccc(O)c(O)c1` (configuration not stated) [Isoprenaline HCl] + CCN1C(=O)N(c2c(F)c(OC)cc(OC)c2F)Cc2cnc3[nH]c(CN4CCOCC4)cc3c21 [pemigatinib] the value was 0.917.
For the compound `CS(=O)(=O)N1CCN(Cc2cc3nc(-c4cccc5[nH]ncc45)nc(N4CCOCC4)c3s2)CC1` + CCN1C(=O)N(c2c(F)c(OC)cc(OC)c2F)Cc2cnc3[nH]c(CN4CCOCC4)cc3c21 [pemigatinib], the cell viability was 0.865.
